# Test results as given in PubChem BioAssay AID1345082 (National Center for Advancing Translational Sciences (NCATS), 2018).
# “And” between values parts separate entries of the source, which are not always exact repeats. Equal values may be shown once. The whole screen tested about 94,000 compounds, of which about 4,000 (4.3%) were called active. Inconclusive means that the source gave no clear call. Such entries were picked first, then a sample of the others. The call rests on the fitted dose curve; in most records, active means well fitted inhibition curve with a large enough effect; inconclusive means small, poorly fitted or top-dose-only effect; inactive means no such curve, though single readings can be large or run the other way. Where the call is inconclusive, the potency comes from a doubtful curve fit.
# Assay: Cytotoxic Profiling in NIH 3T3 Cell Line of Diverse Libraries Using Quantitative High-Throughput Screening; further: nearly all actives have a fitted effect of over 55% in size
# Details: NIH 3T3 viability, CellTiter-Glo ATP luminescence, 48-72 h; activity change, negative = cytotoxicity: at 96.7 µM (top of the series) unless noted; series mostly up to 96.7 µM
# Method in brief: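 Cells were seeded at 400 per well, treated with pin-transferred compound, and kept 48 or 72 hr at 37 °C before CellTiter-Glo addition and luminescence imaging of cellular ATP.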
# On the % scale 0 is the no-effect control and ±100 the full control effect; potency means the concentration at half of the fitted maximal effect; tags describe the fitted curve by direction and shape.
Structure (SMILES),"activity change, negative = cytotoxicity",Potency,outcome
CC(=O)N1CC(CO)C2(CCN(C3CCOCC3)CC2)C1 (stereo unspecified),inactive: -18.9%,,
CN(C)[S+](=O)([O-])c1ccc2c(c1)OCCN(Cc1ccc(F)cc1F)C2,,"inconclusive: 50.1 µM [inhibitor, partial curve, poor fit]",
CNc1nccc(N2CCC(CC(=O)N(C)Cc3cn(C)nc3C)CC2)n1,,"inconclusive: 50.1 µM [inhibitor, partial curve, poor fit]",
O=C(Nc1cccc(-c2ccc(N3CCOCC3)nn2)c1)Nc1ccc(F)cc1F,,"inconclusive: 39.8 µM [inhibitor, partial curve, poor fit]",
CCc1noc(C)c1C(=O)N1CCC(CCC(=O)NCc2cccc(C(F)(F)F)c2)CC1,,"inconclusive: 50.1 µM [inhibitor, partial curve, poor fit]",
O=C(NCC1CCOCC1)c1ccc(C(F)(F)F)cc1,,,inactive
COCCNC(=O)[C@@H]1Cc2cn(Cc3ccncc3)c3cccc(c23)[C@H](CC(C)C)N1,,active: 44.7 µM,
COc1ccc(CNC(=O)[C@H]2O[C@H](CCN3CCN(C)CC3)CC[C@@H]2O)cc1,inactive: -1.12% [at 174 µM],,
Cn1cccc1CN1CCC12Cc1ccccc1NC2=O (stereo unspecified),inactive: -15.7% [at 138 µM],,
Cc1nn(-c2ccccc2)c(C)c1[C@@H]1C=C[C@@H](NC(=O)c2ccc(N(C)C)cc2)C1,,"inconclusive: 50.1 µM [inhibitor, partial curve, poor fit]",
COc1cccc(-c2cn3cc(C(=O)NCc4ccccc4)nc3s2)c1,,"inconclusive: 50.1 µM [inhibitor, partial curve, poor fit]",
CCOc1ccccc1CNC(=O)c1cc2n(n1)CC(c1ccc(Cl)cc1)OC2 (stereo unspecified),,"inconclusive: 50.1 µM [inhibitor, partial curve, poor fit]",
COc1ccc(CN2C[C@@H]3C[C@@H](C(N)=O)N(C(=O)C4CCCC4)c4cccc(c43)C2=O)cc1,,"inconclusive: 8.91 µM [inhibitor, partial curve, poor fit]",
CCNC(=O)N1CCOc2ccc(CCC(=O)NC3CCS(=O)(=O)C3)cc2C1 (stereo unspecified),,,inactive
COc1ccc(CN2C(=O)CO[C@H]3CN(Cc4ccc5c(c4)OCO5)C[C@H]32)cc1,,"inconclusive: 56.2 µM [inhibitor, partial curve, poor fit]",
CC(C)n1cnnc1CC1CCN(C(=O)CCCc2ccccc2)C1 (stereo unspecified),,"inconclusive: 35.5 µM [inhibitor, partial curve]",
O=C(NCc1cccs1)c1ccc2nc(-c3cccnc3)oc2c1,inactive: -15%,,
COc1ccc(-c2ccc(C(=O)NCC(F)F)cc2)nn1,,inactive,
Cc1ccc(CN2CCC3CC(=O)NCCC3C2)cc1 (stereo unspecified),,,inactive [at 138 µM]
Cc1noc(C)c1-c1cc2cc(C(C)C)oc2c(NC2CCN(C)CC2)n1,,"inconclusive: 22.4 µM [inhibitor, full curve, poor fit]",
C[S+](=O)([O-])c1cccc(-c2ncc3c(n2)OCCN(Cc2ccccc2)C3=O)c1,,"inconclusive: 56.2 µM [inhibitor, partial curve, poor fit]",

Structure (SMILES),"activity change, negative = cytotoxicity",Potency,outcome
O=C(c1ccc2ccccc2n1)N1CCC(n2cc(-c3nc(-c4ccccc4)no3)nn2)C1 (stereo unspecified),,"inconclusive: 44.7 µM [inhibitor, partial curve, poor fit]",
O=C(COc1ccccc1Cl)N1CCCC(O)(CN2CCCC2)C1 (stereo unspecified),,,inactive
O=C(c1cc(Cl)ccc1F)N1CCCC(n2cc(-c3nc(-c4ccccc4)no3)nn2)C1 (stereo unspecified),,"inconclusive: 20 µM [inhibitor, partial curve]",
COc1ccc(Cc2nc3nccc(-c4ccc(F)cc4)n3n2)cc1,,"inconclusive: 70.8 µM [inhibitor, single point]",
CSc1cccc(NC(=O)N2CCC(c3cc(-c4cccc(C)c4)n[nH]3)CC2)c1,,active: 17.8 µM,
O=C(NCc1cccs1)c1ccc2nnc(-c3ccc(OC(F)(F)F)cc3)n2c1,,"inconclusive: 44.7 µM [inhibitor, partial curve, poor fit]",
CN(Cc1cccnc1)c1ccc2ncc(Nc3cccc(N[S+](C)(=O)[O-])c3)n2n1,,"inconclusive: 89.1 µM [inhibitor, partial curve, poor fit]",
COc1ccc(CC(=O)N2CCC3(CC2)CC(c2cccc(C(F)(F)F)c2)=NO3)cc1,,"inconclusive: 44.7 µM [inhibitor, partial curve, poor fit]",
Cc1cc(C(=O)N2CCCC(CCc3c(F)cccc3F)C2)nc(C)n1 (stereo unspecified),,"inconclusive: 25.1 µM [inhibitor, full curve]",
CCCCNC(=O)c1cccc(CN2C(=O)CC(c3ccccc3C)C(C(=O)OCC)=C2C)c1 (stereo unspecified),,"inconclusive: 44.7 µM [inhibitor, partial curve]",
COc1ccc(CN2C(=Nc3ccc(Cl)cc3)S[C@H]3[C@@H]2[C@@H](O)[C@H](O)C[C@@H]3C(N)=O)cc1,,"inconclusive: 89.1 µM [inhibitor, single point]",
COc1ccccc1OCc1cc(C(=O)NC[C@H]2C[C@H]3C=C[C@H]2C32CC2)n[nH]1,,"inconclusive: 89.1 µM [inhibitor, single point]",
O=C(Cc1ccccc1)N1CCCCC1c1nc(CCOCC2CCOCC2)no1 (stereo unspecified),inactive: -37.3%,,
O=C(c1ccn[nH]1)N1CCCCC1c1nc(CCOCC2CCCC2)no1 (stereo unspecified),,"inconclusive: 79.4 µM [inhibitor, partial curve, poor fit]",
COCc1nc(-c2ccc(OC3CN(Cc4cccs4)C3)cc2)no1,,"inconclusive: 50.1 µM [inhibitor, partial curve, poor fit]",
O=C1CCCCC(CNC(=O)c2cc(F)ccc2F)N1 (stereo unspecified),,,inactive
OCc1ccc(-c2ccc3nnc(-c4ccccn4)n3n2)cc1,,active: 89.1 µM,
O=C1N(CCc2ccccc2)c2ccccc2C12CCN([S+](=O)([O-])c1cccc(C(F)(F)F)c1)C2 (stereo unspecified),,"inactive and inconclusive: 15.8 µM [inhibitor, full curve, poor fit]",
CC(C)N1C[C@H](O)C[C@H]1c1nnc2n1CCN(C(=O)C1CC1)CC2,inactive: -7.24%,,
COc1ccc(NC(=O)c2ccc3c(c2)N(C(=O)c2ccc(F)cc2)CC3)c(C)c1,,"inconclusive: 50.1 µM [inhibitor, partial curve, poor fit]",
